Measured values as given in patent US20220363757A1.

Molecular target: cynomolgus LAG-3 on transiently transfected CHO-S cells (cynomolgus)
Test: flow cytometry on transfected CHO-S cells

Binder	EC50 [nM]
antibody 15595 (antibody) heavy: QVQLVQSGAEVKKPGASVKVSCKVSGYSLTEISMHWVRQAPGKGLEWMGGFDPEDGETIYAQRFQGRVIMTEDTSTDTAYMELSSLRSEDTAVYYCATGGWGPNWFDPWGQGTLVTVSSASTKGPSVFPLAPSSKSTSGGTAALGCLVKDYFPEPVTVSWNSGALTSGVHTFPAVLQSSGLYSLSSVVTVPSSSLGTQTYICNVNHKPSNTKVDKRV[human IgG1 Fc with changes not shown] light: DIQMTQSPSSVSASVGDRVTITCRASQGISSWLAWYQQKPGKAPKLLIYAASSLQSGVPSRFSGSGSGTDFTLTISSLQPEDFATYYCQQANSFPFTFGPGTKVDIKRTVAAPSVFIFPPSDEQLKSGTASVVCLLNNFYPREAKVQWKVDNALQSGNSQESVTEQDSKDSTYSLSSTLTLSKADYEKHKVYACEVTHQGLSSPVTKSFNRGEC	0.03
antibody 15646 (antibody, human IgG1, kappa) heavy: QVQLQQWGAGLLKPSETLSLTCAVYGGSFSGYYWSWIRQPPGKGLEWIGEINHRGSTNYNPSLKSRVTISVDTSKNQFSLKLSSVTAADTAVYYCTRGEEWESLFFDYWGQGTLVTVSSASTKGPSVFPLAPSSKSTSGGTAALGCLVKDYFPEPVTVSWNSGALTSGVHTFPAVLQSSGLYSLSSVVTVPSSSLGTQTYICNVNHKPSNTKVDKRV[human IgG1 Fc with changes not shown] light: EIVLTQSPATLSLSPGERATLSCRASQSISSYLAWYQQKPGQAPRLLIYGASNRATGIPARFSGSGSGTDFTLTISSLEPEDFAVYYCQQRSNWPLTFGGGTRVEIKRTVAAPSVFIFPPSDEQLKSGTASVVCLLNNFYPREAKVQWKVDNALQSGNSQESVTEQDSKDSTYSLSSTLTLSKADYEKHKVYACEVTHQGLSSPVTKSFNRGEC	0.11
